Among all 220,000 compounds or so, about 16,000 (7.3%) were called active. Inconclusive means that the source gave no clear call. Such entries were picked first, then a sample of the others. Calls follow the shape of the dose curve; as a rule, active = well fitted inhibition curve with a large enough effect (not every such curve was filed as active); inconclusive = small, poorly fitted or top-dose-only effect, or another doubt; inactive = no such curve, though single readings can be large or run the other way. Potencies of inconclusive entries are doubtful fits and often do not repeat.
Biological target: Aldehyde dehydrogenase 1A1 (Homo sapiens) (UniProt P00352)
Sequence of UniProt P00352 (P00352 whole entry, looked up): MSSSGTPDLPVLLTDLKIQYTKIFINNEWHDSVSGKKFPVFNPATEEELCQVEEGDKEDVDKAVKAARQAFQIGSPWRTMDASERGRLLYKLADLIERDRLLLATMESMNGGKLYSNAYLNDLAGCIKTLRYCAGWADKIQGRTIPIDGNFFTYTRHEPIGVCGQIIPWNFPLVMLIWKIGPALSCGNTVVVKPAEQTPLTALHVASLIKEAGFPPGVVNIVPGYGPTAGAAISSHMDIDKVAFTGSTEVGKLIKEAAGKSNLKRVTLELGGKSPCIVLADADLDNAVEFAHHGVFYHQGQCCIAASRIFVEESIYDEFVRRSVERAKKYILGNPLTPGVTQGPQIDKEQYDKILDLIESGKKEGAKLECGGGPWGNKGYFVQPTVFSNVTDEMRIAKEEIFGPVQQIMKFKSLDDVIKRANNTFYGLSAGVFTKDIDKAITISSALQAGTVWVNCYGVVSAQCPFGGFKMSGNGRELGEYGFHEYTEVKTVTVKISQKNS
Experiment: qHTS Assay for Inhibitors of Aldehyde Dehydrogenase 1 (ALDH1A1);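 as to activity, negative = inhibition: plate controls were no enzyme wells and a reference inhibitor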
Conditions: Purified ALDH1A1, NADH fluorescence, propionaldehyde substrate; series mostly up to 75.3 µM; activity, negative = inhibition: at the top concentration
Potency is read from the fitted curve at half-maximal effect; tags tell the direction and shape of the fitted curve.

activity, negative = inhibition, inactive:
O=C(Nc1ccccc1N1CCOCC1)C1CCN(S(=O)(=O)c2ccc(F)cc2)CC1 -4.92%
Cc1cc(C)c(S(=O)(=O)OC[C@H]2C=CC[C@@H](CCC[C@H]3O[C@H](C(=O)OC(C)C)CC[C@@H]3C)O2)c(C)c1 -14%
c1ccc2c(CSCc3cccc4ccccc34)cccc2c1 6.59% [at 13.5 µM]
Cn1c(SCC(=O)NC2CCCCC2)nnc1-c1ccc(N)cc1 4.84%
Cc1ccc(S(=O)(=O)N2CCCC2C(=O)NCc2ccc3c(c2)OCO3)cc1 (configuration not stated) 2.62%
CC(C)C(=O)Nc1cc(=O)[nH]c2ncnn12 12.3%
CCC(=O)Nc1ccc2c(c1)nc(CCN1CCN(C)CC1)n2C 10.7%
Cc1c(Cl)cccc1NC(=O)CCCN1C(=O)CCC1=O 3.91%
O=C(c1ccco1)N1CCN(c2c(-c3ccccc3)c3cc(Cl)ccc3[nH]c2=O)CC1 15%
COc1cc(OC)c(OC)cc1CNCCSc1nnnn1C 0.201%
COc1ccccc1N1CCN(C(=O)Cn2nc(C(F)(F)F)c3c2CCC3)CC1 5.97%
Clc1ncc(CSc2ccccc2)s1 4.43%
COC(=O)c1c(C)c2c(c(C)c1O)OC(=O)c1c(C)c(Cl)c(O)c(Cl)c1O2 7.55%
Cc1ccc(Cl)cc1NC(=S)N(CCN(C)C)Cc1cccs1 1.93%
O=[N+]([O-])c1ccccc1NCc1ccccc1Cl -2.06%

Potency, active:
O=C(CSc1nc2ccccc2s1)NCc1ccc2c(c1)OCO2 14.1 µM
Cc1ccccc1-n1c(-c2ccncc2)n[nH]c1=S 15.8 µM
CN=c1scc(-c2ccccc2F)n1/N=C/c1ccc(O)c(O)c1O 5.62 µM
N#Cc1c(N2C(=O)C3C4C=CC(C4)C3C2=O)sc2c1CCC2 (configuration not stated) 17.8 µM

Potency, inconclusive:
CC(=O)c1ccc(NC(=S)NNC(=O)c2ccccc2[N+](=O)[O-])cc1 39.8 µM [inhibitor, single point]
Cn1c(C(=O)N2CCCc3ccccc32)cc2c(=O)n3ccccc3nc21 15.8 µM [inhibitor, partial curve]
COc1ccc(C(=O)C2CCCN(Cc3ccc(C#CCCO)cc3)C2)cc1F (configuration not stated) 3.98 µM [inhibitor, partial curve]
Cc1c(/C=C/C(=O)c2cccs2)cnn1C 39.8 µM [inhibitor, single point]
CC(=O)c1cccc(N/C=C\c2nnnn2-c2ccc(F)cc2)c1 39.8 µM [inhibitor, single point]
CN(C)CCN=c1cc(-c2ccccc2)oc2ccc(Cl)cc12 39.8 µM [inhibitor, single point]
Cn1c(=O)n(Cc2ccc(F)cc2)c(=O)c2c1nc1n2CCCN1Cc1ccccc1 35.5 µM [inhibitor, single point]
COc1cccc(CCNC(=O)CC2C(=O)NCCN2CC(C)(C)C)c1 (configuration not stated) 22.4 µM [inhibitor, single point]
CCCN1Cc2cccc(C(=O)NC(CC(=O)OCC)c3ccc(OCC)c(OC)c3)c2C1=O (configuration not stated) 35.5 µM [inhibitor, single point]
COc1cccc(-c2cc(C(=O)NCc3ccco3)no2)c1 39.8 µM [inhibitor, single point]
COc1ccc(-c2cc(C(=O)OCC(=O)Nc3ccc4c(c3)OCO4)c3ccccc3n2)cc1 31.6 µM [inhibitor, single point]
O=C(Oc1cc(=O)oc2ccccc12)c1ccco1 31.6 µM [inhibitor, single point]
C/C(=N\NC(=S)NCCc1ccccc1)c1cccs1 7.94 µM [inhibitor, full curve]
O=C1[C@@H]2[C@H](C(=O)N1Cc1ccco1)[C@H]1C=C[C@@H]2C1 22.4 µM [inhibitor, partial curve]
COc1ccc(NC(=O)Cc2ccccc2)cc1 39.8 µM [inhibitor, single point]
CCOC(=O)C1(CCCc2ccccc2)CCN(C(=O)CN2CCOC2=O)CC1 22.4 µM [inhibitor, single point]
COc1ccc(-n2c(C)nc3cc(C(=O)NCc4ccco4)ccc32)cc1 39.8 µM [inhibitor, single point]
CCOc1ccc(N=C(NN)c2ccc3ccccc3n2)cc1 39.8 µM [inhibitor, single point]
N#C/C(=C(/O)COC(=O)c1ccccc1O)c1nc2ccccc2s1 31.6 µM [inhibitor, single point]
O=C(Nc1c(C(=O)NCc2ccco2)cnn1-c1ccccc1)c1ccc(F)cc1 23.8 µM [inhibitor, partial curve]
COc1ccccc1CNC(=O)Nc1cccs1 39.8 µM [inhibitor, single point]
COc1ccc(-c2noc(CN3CCN(c4ccccc4F)CC3)n2)cc1OC 37.7 µM [inhibitor, single point]
CCOC(=O)CCc1c(C)c2ccc(OCC(=O)OC(C)C)cc2oc1=O 22.4 µM [inhibitor, partial curve]
Cc1ccc(C2C3=C(CC(C)(C)CC3=O)Nc3onc(C)c32)cc1 (configuration not stated) 28.2 µM [inhibitor, partial curve]
O=C(CCCN1CCOCC1)c1ccc2c(c1)OCCO2 31.6 µM [inhibitor, partial curve]
CCOc1c(OC(C)=O)ccc(/C=C2\N=C(SCC)SC2=O)c1[N+](=O)[O-] 39.8 µM [inhibitor, single point]
CCN(CC)S(=O)(=O)c1ccc(N2CCCC2)c(C(=O)OCC(=O)/C(C#N)=C(\C)N)c1 39.8 µM [inhibitor, single point]
O=C(CCS(=O)(=O)c1ccc(Cl)cc1)Nc1ccc(N2CCOCC2)cc1 39.8 µM [inhibitor, single point]

Reference: PubChem BioAssay AID1030 (National Center for Advancing Translational Sciences (NCATS), 2008)
